The supplement of paper PMC12217912
Some of the results follow. The full chains were built here from the parent and the listed change. Inactive controls read about 0.05.

B1: TEV protease; numbered along this chain (parent)
chain: MGESLFKGPRDYNPISSSICHLTNESDGHTTSLYGIGFGPFIITNKHLFRRNNGTLVVQSLHGVFKVKDTTTLQQHLVDGRDMIIIRMPKDFPPFPQKLKFREPQREERICLVTTNFQTKSMSSMVSDTSCTFPSGDGIFWKHWIQTKDGQCGSPLVSTRDGFIVGIHSASNFTNTNNYFTSVPKNFMELLTNQEAQQWVSGWRLNADSVLWGGHKVFMVKPEEPFQPVKEATQL

Variants of: B1
Test: raw area under fraction-flipped curve 0-4 h after induction (AUC4h, not background-subtracted), DNA-recorder readout of cleavage of the substrate (dimensionless); higher = more cleavage of the substrate by the protease variant
Settings: temperature: 34 °C; time window: 0-4 h after rhamnose induction
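Also: Bxb1 expression induced with 0.2% (w/v) L-rhamnose at OD600 near 0.5, cultures sampled hourly, flipped fraction per protease–substrate barcode pair counted by paired-end Illumina sequencing.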

Variant	area with substrate ENLYFES	area with substrate ENLYFHS	area with substrate ENLYFIS	area with substrate ENLYFKS	area with substrate ENLYFMS	area with substrate ENLYFPS	area with substrate ENLYFSS	area with substrate ENLYFWS	area with substrate ENLYFYS	area with substrate ENLYFFS	area with substrate ENLYFLS	area with substrate ENLYFNS	area with substrate ENLYFRS	area with substrate ENLYFTS	area with substrate ENLYFGS	area with substrate ENLYFVS
MGESLFKGPRDYNPISSSICHLTNESDGHTTSLYGIGFGPFIITNKHLFRRNNGTLVVQSLHGVFKVKDTTTLQQHLVDGRDMIIIRMPKDFPPFPQKLKFREPQREERICLVTTNFQTKSMSSMVSDTSCTFPSGDGIFWKHWIQTKDGQCGSPLVSTRDGFIVGIHSASNFTNTNNKFTSVPKNFMELLTNQEAQQWVSGWRLNADSVLWGGHKVFMVKPEEPFQPVKEATQL [Y179K]	0.0522	0.0416	0.0829	0.0618	0.0487	0.0519	0.0517	0.0635	0.0604	–	–	–	–	–	–	–
MGESLFKGPRDYNPISSSICHLTNESDGHTTSLYGIGFGPFIITNKHLFRRNNGTLVVQSLHGVFKVKDTTTLQQHLVDGRDMIIIRMPKDFPPFPQKLKFREPQREERICLVTTNFQTKSMSSMVSDTSCTFPSGDGIFWKHWIQTKDGQCGSPLVSTRDGFIVGIHSASNFTNTNNYETSVPKNFMELLTNQEAQQWVSGWRLNADSVLWGGHKVFMVKPEEPFQPVKEATQL [F180E]	–	0.0468	0.0476	–	0.0434	–	–	0.0518	0.0532	0.0585	0.0548	0.0376	0.05	0.034	–	–
MGESLFKGPRDYNPISSSICHLTNESDGHTTSLYGIGFGPFIITNKHLFRRNNGTLVVQSLHGVFKVKDTTTLQQHLVDGRDMIIIRMPKDFPPFPQMLKFREPQREERICLVTTNFQTKSMSSMVSDTSCTFPSGDGIFWKHWIQTKDGQCGSPLVSTRDGFIVGIHSASNFTNTNNYFTSVPKNFMELLTNQEAQQWVSGWRLNADSVLWGGHKVFMVKPEEPFQPVKEATQL [K98M]	0.0729	–	0.0541	–	–	0.0654	0.0674	0.0554	0.0394	–	–	0.0619	0.0595	0.0507	0.0642	–
MGESLFKGPRDYNPISSSICHLTNESDGHTTSLYGIGFGPFIITNKHLFRRNNGTLVVQSLHGVFKVKDTTTLQQHLVDGRDMIIIRMPKDFPPFPQKLKFREPQREERICLVTTNFQTKSMSSMVSDTSCTFPSGDGIFWKHWIQTKDGQCGSPLVSTRDGFIVGIHSASNFTNTNNYFTSNPKNFMELLTNQEAQQWVSGWRLNADSVLWGGHKVFMVKPEEPFQPVKEATQL [V183N]	0.0688	–	0.054	–	–	–	0.0664	–	–	–	–	–	–	0.0633	–	–
MGESLFKGPRDYNPISSSICHLTNESDGHTTSLYGIGFGPFIITNKHLFRRNNGTLVVQSLHGVFKVKDTTTLQQHLVDGRDMIIIRMPKDFPPFPQKLKFREPQREERICLVTTNFQTKSMSSMVSDTSDTFPSGDGIFWKHWIQTKDGQCGSPLVSTRDGFIVGIHSASNFTNTNNYFTSVPKNFMELLTNQEAQQWVSGWRLNADSVLWGGHKVFMVKPEEPFQPVKEATQL [C131D]	–	0.0659	0.0596	0.0678	–	0.0707	–	0.0666	0.0493	0.0647	–	–	0.0495	–	0.0467	–
MGESLFKGPRDYNPISSSICHLTNESDGHTTSLYGIGFGPFIITNKHLFRRNNGTLVVQSLHGVFKVKDTTTLQQHLVDGRDMIIIRMPKDFPPFPQKLKFREPQREERICLVTTNFQTKSMSSMVSDTSCTFPSGDGIFWKHWIQTKDGQCGSPLVSTRDGFIVGIHSASNFTNTNNYFTSVPKNFMELLTNQEAQQWVSGWRLNADSVHWGGHKVFMVKPEEPFQPVKEATQL [L211H]	0.0706	–	0.0641	0.0625	0.0658	0.0554	–	–	–	–	0.0967	0.061	0.0533	–	–	–
MGESLFKGPRDYNPISSSICHLTNESDGHTTSLYGIGFGPFIITNKHLFRRNNGTLVVQSLHGVFKVKDTTTLQQHLVDGRDMIIIRMPKDFPPFPQKLKFREPQREERICLVTTNFQTKSASSMVSDTSCTFPSGDGIFWKHWIQTKDGQCGSPLVSTRDGFIVGIHSASNFTNTNNYFTSVPKNFMELLTNQEAQQWVSGWRLNADSVLWGGHKVFMVKPEEPFQPVKEATQL [M122A]	0.0581	–	0.0588	0.0665	0.0802	0.0485	0.0709	0.0535	0.0579	–	–	–	0.0666	0.0604	–	0.0564
MGESLFKGPRDYNPISSSICHLTNESDGHTTSLYGIGFGPFIITNKHLFRRNNGTLVVQSLHGVFKVKDTTTLQQHLVAGRDMIIIRMPKDFPPFPQKLKFREPQREERICLVTTNFQTKSMSSMVSDTSCTFPSGDGIFWKHWIQTKDGQCGSPLVSTRDGFIVGIHSASNFTNTNNYFTSVPKNFMELLTNQEAQQWVSGWRLNADSVLWGGHKVFMVKPEEPFQPVKEATQL [D79A]	–	0.0505	0.0767	–	0.0651	0.072	0.0749	–	–	0.0192	0.0601	–	0.0591	0.0653	–	–
MGESLFKGPRDYNPISSSICHLTNESDGHTTSLYGIGFGPFIITNKHLFRRNNGTLVVQSLHGVFKVKDTTTLQQHLVDGRDMIIIRMPKDFPPFPQKLKFREPQREERICLVTTNFQTKSMSSMVSDCSCTFPSGDGIFWKHWIQTKDGQCGSPLVSTRDGFIVGIHSASNFTNTNNYFTSVPKNFMELLTNQEAQQWVSGWRLNADSVLWGGHKVFMVKPEEPFQPVKEATQL [T129C]	0.0648	–	0.063	0.0559	0.0538	0.0586	0.0704	0.057	0.0411	0.0993	–	0.0354	–	–	0.0746	–
MGESLFKGPRDYNPISSSICHLTNESDGHTTSLYGIGFGPFIITNKHLFRRNNGTLVVQSLHGVFKVKDTTTLQQHLVDGRDMIIIRMPKDFPPFPQKLKFREPQREERICLVTTNFQTKSMSSMVSDTSCTFPSGDNIFWKHWIQTKDGQCGSPLVSTRDGFIVGIHSASNFTNTNNYFTSVPKNFMELLTNQEAQQWVSGWRLNADSVLWGGHKVFMVKPEEPFQPVKEATQL [G138N]	0.0669	0.0366	0.0624	–	–	0.0656	–	–	–	0.0505	–	–	0.0756	–	0.0704	–
MGESLFKGPRDYNPISSSICHLTNESDGHTTSLYGIGFGPFIITNKHLFRRNNGTLVVQSLHGVFKVKDTTTLQQHLVDGRDMIIIRMPKDFPPFPQKLKFREPQREERICLVTTNFQTKSMSSMVSDTSCTFPSGDGIFWKHWIQTKVGQCGSPLVSTRDGFIVGIHSASNFTNTNNYFTSVPKNFMELLTNQEAQQWVSGWRLNADSVLWGGHKVFMVKPEEPFQPVKEATQL [D149V]	0.079	0.0699	–	–	0.0643	0.0577	0.0728	–	–	0.0689	–	–	0.0349	–	–	–
MGESLFKGPRDYNPISSSICHLTNESDGHTTSLYGIGFGPFIITNKHLFRRNNGTLVVQSLHGVFKVKDTTTLQQHLVDGRDMIIIRMPKDFPPFPQKLKFREPQREERICLVTTNFQTKSMSSMVSDTSCTFPSGDGIFWKHWIQTKDGQCGSNLVSTRDGFIVGIHSASNFTNTNNYFTSVPKNFMELLTNQEAQQWVSGWRLNADSVLWGGHKVFMVKPEEPFQPVKEATQL [P155N]	–	0.0523	0.045	–	0.0496	0.0635	0.0443	–	0.0444	0.0855	–	0.0502	0.0471	0.044	0.05	0.0286
MGESLFKGPRDYNPISSSICHLTNESDGHTTSLYGIGFGPFIITNKHLFRRNNGTLVVFSLHGVFKVKDTTTLQQHLVDGRDMIIIRMPKDFPPFPQKLKFREPQREERICLVTTNFQTKSMSSMVSDTSCTFPSGDGIFWKHWIQTKDGQCGSPLVSTRDGFIVGIHSASNFTNTNNYFTSVPKNFMELLTNQEAQQWVSGWRLNADSVLWGGHKVFMVKPEEPFQPVKEATQL [Q59F]	–	0.0512	0.0525	–	0.0643	0.057	0.0542	0.0537	–	0.0727	0.0549	0.0396	–	0.0736	0.0559	0.0599
MGESLFKGPRDYNPISSSICHLTNESDGHTTSLYGIGFGPFIITNKHLFRRNNGTLVVQSLHGVFKVKDTTTLQQHLVDGRDMIIIRMPKDFPPFPQKLKFREPQRHERICLVTTNFQTKSMSSMVSDTSCTFPSGDGIFWKHWIQTKDGQCGSPLVSTRDGFIVGIHSASNFTNTNNYFTSVPKNFMELLTNQEAQQWVSGWRLNADSVLWGGHKVFMVKPEEPFQPVKEATQL [E107H]	0.0702	–	0.0688	0.0701	0.0721	0.0681	–	0.0714	–	0.0563	–	–	0.0432	–	0.0365	0.0677
MGESLFKGPRDYNPISSSICHLTNESDGHTTSLYGIGFGPFIITNKHLFRRNNGTLVVQSLHGVFKVKDTTTLQQHLVDGRDMIIIRMPKDFPPFPQKLKFREPQREERICLVTTNFQTKSMSSMVSDTSCTFPSGDGIFWKHWIQTKDGQCGSPLVSTRDGFIVGIHSASNFTNTNNYFTSVPKNFMELLTNQEAQQWVSGWRLNADSVLWGGHKVFYVKPEEPFQPVKEATQL [M219Y]	0.0777	–	0.0626	0.0567	–	0.0618	–	–	–	–	–	0.0467	–	–	–	–
MGESLFKQPRDYNPISSSICHLTNESDGHTTSLYGIGFGPFIITNKHLFRRNNGTLVVQSLHGVFKVKDTTTLQQHLVDGRDMIIIRMPKDFPPFPQKLKFREPQREERICLVTTNFQTKSMSSMVSDTSCTFPSGDGIFWKHWIQTKDGQCGSPLVSTRDGFIVGIHSASNFTNTNNYFTSVPKNFMELLTNQEAQQWVSGWRLNADSVLWGGHKVFMVKPEEPFQPVKEATQL [G8Q]	–	–	–	0.0633	0.105	–	–	0.0362	–	0.0459	0.0719	–	0.0549	0.0671	–	0.0698
MGESLFKGPRDYNPISSSICHLTNESDGHTTSLYGIGFGPFIITNKHLFRRNNGTLVVQSLHGVFKVKDTTTLQQHLVDGRDMIIIRMPKDFPPFPQKLKFREPQREERICLVTTNFQTKSMSSMVSDTSCTFPSGDGIFWKHWIQTKDGQCGSPLVITRDGFIVGIHSASNFTNTNNYFTSVPKNFMELLTNQEAQQWVSGWRLNADSVLWGGHKVFMVKPEEPFQPVKEATQL [S158I]	0.0491	–	0.0507	0.0427	–	0.0391	–	0.051	0.0512	–	–	0.0619	–	–	–	0.0441
MGESLFKGPRDYNPISSSICHLTNESDGHTTSLYGIGFGPFIITNKHLFRRNNGTLVVQSLHGVFKVKDTTTLQQHLVDGRDMIIIRMPKDFPPFPQKLKFREPQREERICLVTTNFQTKSMSSMVSDTSCTFPSGDGIFWKHWIQTKDGQCGSPLVATRDGFIVGIHSASNFTNTNNYFTSVPKNFMELLTNQEAQQWVSGWRLNADSVLWGGHKVFMVKPEEPFQPVKEATQL [S158A]	0.0471	0.0537	0.0351	0.0664	0.0607	–	–	0.0419	0.0529	0.0568	–	–	–	0.0736	0.0592	–
MGESLFKGPRDYNPISSSICHLTNESDGHTTSLYGIGFGPFIITNKHLFRRNNGTLVVQSLHGVFKVKDTTTLQQHLVDGRDMIIIRMPKDFPPFPQKLKFREPQREERICLVTTNFQTKSMSSMVSDTSCTFPSGDGIFWKHWIQTKDGQCGSPLVSTRDGFIVGIHSASEFTNTNNYFTSVPKNFMELLTNQEAQQWVSGWRLNADSVLWGGHKVFMVKPEEPFQPVKEATQL [N172E]	–	–	0.0477	0.0754	0.0524	0.057	–	0.0599	0.0617	0.0719	–	–	0.0715	0.0658	–	–
MGESLFKGPRDYNPISSSICHLTNESDGHTTSLYGIGFGPFIITNKHLFRRNNGTLVVQSLHGVFKVKDTTTLQQHLVDGRDMIIIRMPKDFPPFPQKLKFREPQREERICLVTTNFQTKSMSSMVSDTICTFPSGDGIFWKHWIQTKDGQCGSPLVSTRDGFIVGIHSASNFTNTNNYFTSVPKNFMELLTNQEAQQWVSGWRLNADSVLWGGHKVFMVKPEEPFQPVKEATQL [S130I]	0.0547	–	0.0455	0.0677	0.0578	0.0534	0.0459	0.0602	–	–	0.0445	0.0704	0.0568	0.0643	0.0485	0.061
